{"source": "PubChem BioAssay AID463173", "about": "(ICCB-Longwood Screening Facility, Harvard Medical School, 2010)", "note": "Screen size: about 52,000 compounds; about 4,300 (8.3%) were called active. Rule as the data show it: active = survival mostly below about 52% (no sharp cut-off); inactive = mostly above about 56%. This is one part of the list."}
{"system": "DeltatarO mutant", "experiment": "growth inhibition of S. aureus wild type versus tarO mutant, primary screen, teichoic acid synthesis inhibitors, RN4220, OD600 (AID 463173)", "details": "OD600, 18 h, stronger effect = lower value, screened at 18.75 µg/mL (by protocol)"}
{"smiles": "CC1(C)C(=O)NC(=O)N1CN1C(=O)NC(=O)C1(C)C", "survival": "inactive: 58%"}
{"smiles": "O=C(NCc1ccco1)c1ccc(S(=O)(=O)NCC2CCCCC2)cc1", "survival": "inactive: 64%"}
{"smiles": "CCC(Nc1ccc(-c2nc(-c3ccccn3)no2)cc1[N+](=O)[O-])c1ccccc1", "note": "(stereo not given)", "survival": "active: 41%"}
{"smiles": "COc1cc2c(cc1OC)C(COc1cc(C)cc(C)c1)N(C(=O)C(C)(C)C)CC2", "note": "(stereo not given)", "survival": "inactive: 78%"}
{"smiles": "COc1cc2c(C(=O)N(C)c3cccc(C(F)(F)F)c3)cn(CC(C)C)c(=O)c2cc1OC", "survival": "inactive: 172%"}
{"smiles": "Cc1cccc(N2CCn3c2nc2c3c(=O)n(CCCc3ccccc3)c(=O)n2C)c1", "survival": "inactive: 76%"}
{"smiles": "Cc1oc(-c2cccc(Cl)c2)nc1Cn1c(SCc2ccc(F)cc2)nc2cccnc21", "survival": "inactive: 85%"}
{"smiles": "Cc1ccc(C(c2sc3nc(-c4ccco4)nn3c2O)N2CCN(c3ccc(F)cc3)CC2)cc1", "note": "(stereo not given)", "survival": "inactive: 94%"}
{"smiles": "NC(=O)c1ccc(NC(=O)c2ccccc2C(=O)O)cc1", "survival": "inactive: 74%"}
{"smiles": "Cc1ccc(C(=O)COC(=O)CCC(=O)Nc2ccc(Oc3ccccc3)cc2)cc1", "survival": "inactive: 82%"}
{"smiles": "COc1ccc(Cn2c(=O)c3oc4ccccc4c3n(CC(=O)Nc3c(C)cccc3C)c2=O)cc1", "survival": "inactive: 85%"}
{"smiles": "Cc1oc2cc3oc(=O)c(CCC(=O)NCCc4ccccc4F)c(C)c3cc2c1C", "survival": "inactive: 94%"}
{"smiles": "COc1ccc(-c2nc3c(c(SCc4ccc(Br)cc4)n2)Cc2c(CO)cnc(C)c2O3)cc1", "survival": "inactive: 89%"}
{"smiles": "Cc1ccc(OCCSc2nnc(-c3cccs3)o2)cc1", "survival": "inactive: 53%"}
{"smiles": "Cc1ccc(-n2ncc(C(=O)NCc3ccc4c(c3)OCO4)c2C2CCN(C(=O)OC(C)(C)C)CC2)c(C)c1", "survival": "inactive: 92%"}
{"smiles": "CN1CCN(c2nc(C#N)c(C#N)nc2C(C#N)=C2Nc3ccccc3N2)CC1", "survival": "inactive: 97%"}
{"smiles": "COC(=O)c1ccc(NC(=O)c2cc(S(=O)(=O)N3CCOCC3)cn2C)cc1", "survival": "inactive: 89%"}
{"smiles": "Cc1ccccc1OCC(=O)Nc1ccc(S(=O)(=O)N(Cc2ccccc2)c2ccccc2)cc1", "survival": "inactive: 66%"}
{"smiles": "COc1ccc(CCNC(=O)CSc2cn(CCNC(=O)c3c(F)cccc3F)c3ccccc23)cc1OC", "survival": "inactive: 79%"}
{"smiles": "CN(C)c1ccc(NC(=O)Cn2c(SCc3ccc(F)cc3)nc3ccncc32)cc1", "survival": "inactive: 72%"}
{"smiles": "Cc1ccc2c(=O)cc(C(=O)N(Cc3ccc(C(C)(C)C)cc3)C3CCS(=O)(=O)C3)oc2c1", "note": "(stereo not given)", "survival": "active: 35%"}
{"smiles": "Cc1ccc(NC(=O)c2c(C)oc3ccc(O)c(CN4CCOCC4)c23)cc1", "survival": "inactive: 78%"}
{"smiles": "COc1cccc(NC(=O)CCN2CC(C)CC(C)C2)c1", "note": "(stereo not given)", "survival": "inactive: 90%"}
{"smiles": "CNC(=S)N1CCN(c2nc3ccccc3s2)CC1", "survival": "inactive: 73%"}
{"smiles": "CCC(=O)N1c2ccccc2CC1C(=O)NCc1ccc(CC)cc1", "note": "(stereo not given)", "survival": "inactive: 100%"}
{"smiles": "Cc1ccc2c(c1)c1c(c(=O)n(-c3ccccc3)c(=O)n1Cc1ccccc1C)n2C", "survival": "inactive: 71%"}
{"smiles": "Cc1cc(C)cc(N(CC(=O)NCCc2ccc(Cl)cc2)S(=O)(=O)c2c(C)noc2C)c1", "survival": "inactive: 95%"}
{"smiles": "COc1ccc(NC(=O)Nc2nnc(N3CCCC3)s2)cc1", "survival": "inactive: 87%"}
{"smiles": "COc1ccc(CNC(=O)CSc2nnc(C)c3c(C)n(-c4ccccc4)nc23)c(OC)c1", "survival": "inactive: 81%"}
{"smiles": "O=C(c1cc2c(Cl)nc3ccccc3c2s1)N1CCCCC1", "survival": "active: 46%"}
{"smiles": "CCOC(=O)/C(C#N)=C\\c1ccc(N(C)C)cc1", "survival": "inactive: 99%"}
{"smiles": "Oc1ccc(-c2nc3ccc(Cl)cn3c2Nc2ccc(Cl)cc2)cc1", "survival": "active: 16%"}
{"smiles": "COc1ccc(Cn2ccc3nc(C)c(C(=O)NCc4ccc(SC)cc4)cc3c2=O)cc1", "survival": "inactive: 70%"}
{"smiles": "Cc1ccc(CNS(=O)(=O)c2cnc(N)nc2)cc1", "survival": "inactive: 72%"}
{"smiles": "Cc1ccccc1NC(=O)Cn1nc(-c2ccccc2)nc(Cc2ccccc2)c1=O", "survival": "inactive: 75%"}
{"smiles": "Cc1ccc(NC(=O)c2ccc(CN3CC(=O)N4CCCCC4C3=O)cc2)c(Cl)c1", "note": "(stereo not given)", "survival": "inactive: 118%"}
{"smiles": "CN1CCN(C(=O)c2ccc3c(c2)N(Cc2ccc(C(F)(F)F)cc2)C(=O)c2ccccc2S3)CC1", "survival": "inactive: 83%"}
{"smiles": "CN(CC(=O)Nc1cccc(F)c1)S(=O)(=O)c1ccc2c(c1)n(C)c(=O)c(=O)n2C", "survival": "inactive: 102%"}
{"smiles": "CC(=O)c1cccc(NC(=O)CSc2ncc3c(n2)-c2cc(Cl)ccc2N(Cc2ccccc2)S3(=O)=O)c1", "survival": "inactive: 75%"}
{"smiles": "COc1cc(CNC(=O)c2cc3n(n2)CCCN(Cc2cccc(F)c2)C3=O)cc(OC)c1OC", "survival": "inactive: 79%"}
{"smiles": "O=C(CC(c1cccs1)N1Cc2ccccc2C1=O)Nc1ccc(F)cc1", "note": "(stereo not given)", "survival": "inactive: 84%"}
{"smiles": "NC(=O)C1CCN(C(=O)CC(c2ccccc2)c2ccccc2)CC1", "survival": "inactive: 81%"}
{"smiles": "CSc1cccc(NC(=O)c2cc3c(COC(C)=O)cnc(C)c3oc2=O)c1", "survival": "inactive: 126%"}
{"smiles": "COc1ccc(S(=O)(=O)NCc2nc(-c3ccccc3)no2)cc1", "survival": "inactive: 76%"}
{"smiles": "COc1ccc(Nc2nc(Cl)nc(NCCO)n2)cc1", "survival": "inactive: 77%"}
{"smiles": "O=C(CSc1nc2ccccc2n1Cc1cccc(F)c1)NCc1ccccc1", "survival": "inactive: 84%"}
{"smiles": "CCOC(=O)c1sc2ncn(CC(=O)Nc3ccc(OC)c(Cl)c3)c(=O)c2c1C", "survival": "inactive: 66%"}
{"smiles": "COc1ccc(Br)cc1Cn1nnc(C(=O)Nc2cccc(SC)c2)c1N", "survival": "inactive: 49%"}
{"smiles": "Cc1ccccc1Cn1c2ccccc2c2cnn(CC(=O)NC3CCCCCC3)c(=O)c21", "survival": "inactive: 87%"}
{"smiles": "CC(C)CCNC(=O)Cn1nc(N2CCN(c3ccccc3)CC2)ccc1=O", "survival": "inactive: 83%"}
{"smiles": "CCc1ccc(NC(=O)CSc2nc(C)c(C(=O)Nc3ccccc3)c(-c3ccc(OC)c(OC)c3)c2C#N)cc1", "survival": "inactive: 75%"}
{"smiles": "Cc1cc(Br)ccc1NC(=O)CSc1c2c(nc3ccccc13)CCC2", "survival": "inactive: 62%"}
{"smiles": "O=C(CCc1ccccc1)Nc1ccccc1", "survival": "inactive: 59%"}
{"smiles": "CCOc1ccc(CNC(=O)CCc2c(C)nn(-c3ccc(N4CCCCC4)nn3)c2C)cc1", "survival": "inactive: 55%"}
{"smiles": "CCCC1C2CN(Cc3ccccc3)CC=C2C(C#N)=C(N)C1(C#N)C#N", "note": "(stereo not given)", "survival": "inactive: 67%"}
{"smiles": "CCOc1ccc(CCNC(=O)c2c(C)oc3ncn(CC(C)C)c(=O)c23)cc1OCC", "survival": "inactive: 78%"}
{"smiles": "CC(=O)N1CCc2c(sc3c2c(=O)n(-c2ccccc2)c(=O)n3CC(=O)Nc2cc(C)cc(C)c2)C1", "survival": "inactive: 68%"}
{"smiles": "CCCCCc1ccc(-c2ccc(Br)cc2)nc1", "survival": "active: -4%"}
{"smiles": "O=C(NCc1ccccc1F)C(=O)NCC(c1ccc2c(c1)OCO2)N1CCOCC1", "note": "(stereo not given)", "survival": "inactive: 79%"}
{"smiles": "CC1C(C#N)=C(N)OC2=C1C(=O)CCC2", "note": "(stereo not given)", "survival": "inactive: 105%"}
{"smiles": "CC1CC(c2ccccc2)n2nc(N)nc2N1", "note": "(stereo not given)", "survival": "inactive: 101%"}
{"smiles": "CSc1ccccc1-c1nnc(NC(=O)c2ccc3c(c2)OCCO3)o1", "survival": "inactive: 119%"}
{"smiles": "O=C(NC1CCCCC1)N1CCc2ccccc2C1", "survival": "inactive: 77%"}
{"smiles": "Cc1c(C(=O)N2CCCCCC2)c(S(=O)(=O)NCc2ccccc2)c(C)n1C", "survival": "inactive: 77%"}
{"smiles": "CSc1ccc(CCNC(=O)c2cc(C)nc3c2c(C)nn3-c2cccc(F)c2)cc1", "survival": "inactive: 101%"}
{"smiles": "COc1ccccc1N1CCN(c2ccc(=O)n(CC(=O)NCc3ccc(F)cc3)n2)CC1", "survival": "inactive: 102%"}
{"smiles": "COc1ccc(NC(=O)c2cc3cc(C)ccc3[nH]2)cc1", "survival": "inactive: 100%"}
{"smiles": "CCOc1ccccc1NC(=O)CSc1nc2c(oc3ccccc32)c(=O)n1-c1ccc(F)cc1", "survival": "inactive: 74%"}
{"smiles": "Cc1nc2ccccc2c(=O)n1CC(=O)N(C1CCCCC1)C1CCCCC1", "survival": "inactive: 87%"}
{"smiles": "O=S1(=O)CCC(NNC(=S)Nc2ccccc2)C1", "note": "(stereo not given)", "survival": "inactive: 100%"}
{"smiles": "COc1cccc(CSc2nc3n(n2)C(c2ccc(C(=O)O)cc2)C(C(=O)Nc2ccccc2)=C(C)N3)c1", "note": "(stereo not given)", "survival": "inactive: 95%"}
{"smiles": "O=C(OCc1cc(=O)n2nc(-c3cccs3)sc2n1)c1ccccc1Cl", "survival": "inactive: 72%"}
{"smiles": "Cc1cc2c(cc1S(=O)(=O)Nc1cccc(Cl)c1C)n(C)c(=O)c(=O)n2C", "survival": "inactive: 76%"}
{"smiles": "Cc1cc(C)cc(N2C(=O)CSC23C(=O)N(Cc2c(F)cccc2Cl)c2ccccc23)c1", "note": "(stereo not given)", "survival": "inactive: 90%"}
{"smiles": "CCOC(=O)c1cc(-c2ccccc2)n(CCC(=O)Nc2ccccc2CC)c1C", "survival": "inactive: 69%"}
{"smiles": "Cc1cc(C)c(OCC(=O)O)c(Cl)c1", "survival": "inactive: 99%"}
{"smiles": "COc1ccc(C2CC(=O)N(Cc3ccc(C)cc3)c3c2c(C)nn3-c2nc(C)cc(C)n2)c(OC)c1", "note": "(stereo not given)", "survival": "inactive: 103%"}
{"smiles": "Cc1cccc2nc(-c3ccccn3)c(Nc3ccc(F)cc3)n12", "survival": "active: -9%"}
{"smiles": "O=C(Nc1ccc(F)c(Cl)c1)Nc1c[nH]c(=O)[nH]c1=O", "survival": "inactive: 78%"}
{"smiles": "O=C(CSc1nc(=O)n(CCN2CCOCC2)c2c1CCC2)Nc1ccc(Cl)c(Cl)c1", "survival": "inactive: 74%"}
{"smiles": "O=C(CN1CCC(n2nnc3cc(C(F)(F)F)ccc32)CC1)N1CCc2ccccc21", "survival": "inactive: 93%"}
{"smiles": "CC(CNC(=O)c1cnn(-c2ccc(F)cc2)c1-n1cccc1)c1ccccc1", "note": "(stereo not given)", "survival": "inactive: 87%"}
{"smiles": "COCCN(C(=O)c1ccco1)c1nnc(-c2ccc(F)cc2)s1", "survival": "inactive: 58%"}
{"smiles": "CC(=O)Nc1ccccc1-c1nc2ccccc2n(CC(=O)Nc2cccc(C)c2C)c1=O", "survival": "inactive: 117%"}
{"smiles": "O=C(Nc1nccs1)c1ccc(N2C(=O)CCC2=O)cc1", "survival": "inactive: 93%"}
{"smiles": "Cc1ccc2nc(SCc3nc(-c4ccc(Cl)cc4)no3)[nH]c2c1", "survival": "active: 28%"}
{"smiles": "CC1=C(C(=O)Nc2cccnc2)C(c2ccc(C)cc2)n2nc(SCc3ccccc3F)nc2N1", "note": "(stereo not given)", "survival": "inactive: 62%"}
{"smiles": "COc1cc2c(cc1OC)n(CC(=O)c1cc(C)ccc1C)c(=O)n1nc(CCn3nc(C)cc3C)nc21", "survival": "inactive: 81%"}
{"smiles": "Cc1cc(Nc2ccc(F)cc2F)nc(-n2nc(C)cc2C)n1", "survival": "inactive: 80%"}
{"smiles": "CCc1cc2c(cc3c(=O)n(CCCC(=O)NCc4cccc(Br)c4)ncn32)s1", "survival": "inactive: 79%"}
